The full ranking holds about 33,000 sequences; the median of “E-score (-0.5 to 0.5)” is about -0.021, and the highest 2% start at about 0.32. The list shows a part of the results.
molecular target: T1, Zap1 (UniProt P47043); assay: PBM E-score (8-mer binding enrichment) (E-score (-0.5 to 0.5)); higher = stronger / more preferred TF binding; most listed sequences are background and not binding sites; conditions: protein concentration: 200 nM; construct: GST-full length
T1 sequence: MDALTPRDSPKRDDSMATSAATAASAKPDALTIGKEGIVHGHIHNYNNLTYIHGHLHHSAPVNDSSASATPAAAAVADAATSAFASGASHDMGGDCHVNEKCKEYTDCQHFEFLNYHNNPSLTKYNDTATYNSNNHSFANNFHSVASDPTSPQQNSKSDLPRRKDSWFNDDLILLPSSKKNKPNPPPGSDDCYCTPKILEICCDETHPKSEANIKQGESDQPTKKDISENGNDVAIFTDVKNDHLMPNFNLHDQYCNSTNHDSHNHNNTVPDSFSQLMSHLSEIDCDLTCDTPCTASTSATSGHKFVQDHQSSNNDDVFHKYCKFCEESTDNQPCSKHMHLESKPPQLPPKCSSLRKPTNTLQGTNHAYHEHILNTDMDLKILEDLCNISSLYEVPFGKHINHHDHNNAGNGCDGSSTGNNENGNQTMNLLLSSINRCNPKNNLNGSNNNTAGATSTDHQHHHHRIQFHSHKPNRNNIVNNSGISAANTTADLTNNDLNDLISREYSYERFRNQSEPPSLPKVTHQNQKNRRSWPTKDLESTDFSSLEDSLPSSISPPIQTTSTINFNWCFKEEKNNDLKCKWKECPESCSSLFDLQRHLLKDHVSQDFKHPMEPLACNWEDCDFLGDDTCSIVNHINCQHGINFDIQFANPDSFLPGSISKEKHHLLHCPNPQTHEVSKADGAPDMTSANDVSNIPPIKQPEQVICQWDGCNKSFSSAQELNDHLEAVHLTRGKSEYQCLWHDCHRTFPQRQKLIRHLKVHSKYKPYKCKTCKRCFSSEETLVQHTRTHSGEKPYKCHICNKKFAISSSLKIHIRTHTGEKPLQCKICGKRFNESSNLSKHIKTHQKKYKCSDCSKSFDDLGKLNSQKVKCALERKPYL
Procedure, shortened: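 Universal all-10-mer Agilent arrays, double-stranded by primer extension on fresh or once-stripped slides, were probed with about 100-200 nM GST-tagged yeast transcription factors made by PURExpress. Fluorescent anti-GST detected bound protein, and masliner normalised the scans. E-scores from the Universal PBM Analysis Suite were given to each ungapped eight-base word pooled with its reverse complement.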

In order of falling “PBM E-score” value:
1. AGGGTACT  0.441
2. ATGTAACC  0.395
3. ACCCCGAA  0.384
4. GTGACCAC  0.344
5. GGTTAGGA  0.296
6. AAGGGTCC  0.274
7. CTGTGACC  0.269
8. ACCCCTCA  0.267
9. AACCAATC  0.26
10. TGTAAAAA  0.253
11. AACCATAT  0.232
12. AACTACAA  0.226
13. ACTACCCC  0.215
14. GGAGTAAA  0.214
15. AGGTTTTA  0.212
16. GGACACCC  0.212
17. ATAAAACC  0.211
18. CCCGGTAA  0.204
19. GTGAACAA  0.202
20. CTACCATA  0.2
21. TACGGTCA  0.193
22. AATACGGT  0.192
23. GAACCTCA  0.189
24. CTCGATAC  0.18
25. CCTAGAAA  0.174
26. TCTCAAAA  0.169
27. CGGGTGTC  0.169
28. ATTACTTG  0.168
29. ACCTTCGA  0.166
30. ACGAACCT  0.164
31. GTGAAATA  0.158
32. AACCAGGA  0.153
33. TGACAAAA  0.152
34. GATCATAA  0.149
35. CACCAAAC  0.145
36. GGGTGGGA  0.141
37. GGAGGTCA  0.136
38. ATTCGGGG  0.13
39. AAATGAGT  0.129
40. GTGGACAA  0.126
41. AAACTTGG  0.124
42. ACCAGTTG  0.122
43. AAACAGGG  0.122
44. CGCGCTAC  0.115
45. ACTCAGAG  0.11
46. ACGAAAGT  0.11
47. AACTGTGA  0.108
48. AAATTCGT  0.107
49. GGGTTTCA  0.103
50. AACTTCAA  0.101
51. CCTACTGA  0.0949
52. ACTACTAA  0.0945
53. AATCTTTA  0.0848
54. AAACATAC  0.0829
55. GAACCTGA  0.0822
56. TAGACATA  0.0776
57. CATGACAG  0.0769
58. CACCTGAC  0.0764
59. TACTTAAA  0.066
60. CAAGTGGC  0.0655
61. TAAGCCCA  0.0636
62. TAGCAAAA  0.0555
63. GCACCGTA  0.0526
64. CTATTACA  0.046
65. TCACGGGA  0.0405
66. CTACGCGA  0.0302
67. CAGACAAC  0.0296
68. TATCTCCA  0.0267
69. GCCTTACC  0.0234
70. CCTTGGTC  0.0233
71. AATGATGT  0.022
72. CCTATCAA  0.0212
73. ATTCGGAA  0.0178
74. GGAAAGTA  0.0173
75. GAGGAACA  0.0172
76. CAGCTTTA  0.0154
77. ATCGCGCC  0.0143
78. GAACGGCC  0.0134
79. AAAGACGC  0.013
80. ATAAGAGA  0.0121
81. CGCACAAA  0.01
82. GGTGCGGA  0.00841
83. CATTAATC  -0.00425
84. TGAGTCCA  -0.00518
85. ACTAGCCA  -0.0097
86. CGCCGCAA  -0.00982
87. CCGCCGTA  -0.0131
88. CGAGTGTC  -0.0163
89. AGTCCTAC  -0.0172
90. AGAGGACG  -0.0182
91. CTAGTCTA  -0.0327
92. CAGCGGCG  -0.0372
93. CTATAGAG  -0.0425
94. CCCGTCAG  -0.0426
95. AGTTCCGG  -0.0478
96. AGGACCAT  -0.0487
97. GATCCTTA  -0.0517
98. CGGCTCCC  -0.0521
99. CCCGTGGA  -0.0527
100. ACACGCAT  -0.0553
101. ACTTGACT  -0.056
102. CAGCTTAA  -0.0577
103. ACTGGTGG  -0.0589
104. CCTAGACC  -0.0621
105. TGGACCCA  -0.0626
106. ATGCGATC  -0.0635
107. TGTCAACA  -0.0648
108. GGGTCGGA  -0.0652
109. GGACAACA  -0.0675
110. CGGAGCGA  -0.0718
111. ATAAGCTG  -0.0738
112. CGATCGCC  -0.0746
113. ATCGGAGA  -0.0774
114. AAGCGAGC  -0.0792
115. CGCGCTTC  -0.0795
116. CTCTTTCC  -0.0799
117. ACGATACA  -0.0802
118. GGTCCCGA  -0.0811
119. AGATACAT  -0.0864
120. AAGTCCTA  -0.0865
121. GAAGTACA  -0.0897
122. GCCAAGAA  -0.0936
123. CTAGTATA  -0.0945
124. CCAGCTAC  -0.0949
125. AGCGCCTA  -0.0979
126. ATCCAGCG  -0.0984
127. ATGCGTTC  -0.0993
128. AGTGCTAG  -0.104
129. GCCGGATA  -0.106
130. ACTCGGTG  -0.113
131. ATACATAG  -0.113
132. AACTAGCT  -0.114
133. CATCGCAA  -0.119
134. CGCCACGC  -0.12
135. TCGCGGCA  -0.122
136. AGACTCAT  -0.125
137. CAATATGC  -0.126
138. CGTGTAAA  -0.127
139. AATCTGTC  -0.13
140. AACGTCCC  -0.133
141. ATCGCGTC  -0.135
142. TCCCTGAA  -0.136
143. AACTCTAT  -0.138
144. AGCAAAAG  -0.146
145. AGTGCACG  -0.151
146. CACGCTAC  -0.151
147. CAGGATGA  -0.152
148. ACACGACT  -0.153
149. CGCTCCTA  -0.155
150. AACGCTGA  -0.155
151. GAAGCCTC  -0.16
152. ACACGGAG  -0.162
153. CGAGCTAC  -0.163
154. CTACTTGC  -0.17
155. CACGACTG  -0.188
156. AAGACTCC  -0.191
157. ACGCTTGC  -0.192
158. AAAAGCTC  -0.194
159. ATAGCCTC  -0.196
160. GAACTCTC  -0.202
161. GCGCCTAC  -0.202
162. CCTGCCAA  -0.219
163. AACAGCTT  -0.219
164. CTATACAC  -0.224
165. TGCGCCCA  -0.235
166. AAGTGTAT  -0.245
167. CGCAGGAA  -0.246
168. ATGCGCTG  -0.262
169. AAAGGAGC  -0.271
170. GCAAGCGC  -0.276
171. CCTACGGC  -0.277
172. AGAAGGCG  -0.28
173. CGATTGCC  -0.325
174. CCCCCCAA  -0.371

Reference: the supplement of paper PMC3334620
